# Test results taken from publication PMC7819943, “Rice protein-binding microarrays: a tool to detect cis-acting elements near promoter regions in rice”.
# The other results are listed elsewhere or left out.
# Molecular target: T1, OsWOX13 (Oryza sativa, UniProt Q5QMM3 1-267)
# T1 sequence: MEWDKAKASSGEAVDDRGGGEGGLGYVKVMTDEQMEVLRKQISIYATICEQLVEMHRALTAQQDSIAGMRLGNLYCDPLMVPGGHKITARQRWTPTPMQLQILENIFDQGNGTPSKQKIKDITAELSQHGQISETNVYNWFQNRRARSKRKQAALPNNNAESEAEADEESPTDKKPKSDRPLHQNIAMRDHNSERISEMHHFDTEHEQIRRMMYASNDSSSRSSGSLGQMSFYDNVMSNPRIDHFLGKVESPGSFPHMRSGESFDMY
# Experiment: protein-binding microarray (RPBM); PBS, 2% BSA, 51.3 ng/ul salmon testes DNA, 50 uM zinc acetate, 200 nM TF, 25 C, 1 h; high values mean tight binding
# Details: protein: recombinant; tags: N-terminal polyhistidine and DsRed monomer fusion (pET32a); label: CyDye5-dUTP incorporated in the synthesized complementary strand; 3' TTTTT single-stranded linker to array surface; dsDNA, one strand shown
# Outline: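 A custom Agilent array was converted to double-stranded form by primer extension with Cy5-dUTP and blocked with 2% BSA. Protein at 200 nM in PBS with 2% BSA, salmon testes DNA and 50 µM zinc acetate was applied for 1 h at 25 °C, followed by washing. The proteins were polyhistidine–DsRed N-terminal fusions of transcription factors, expressed in E. coli BL21-CodonPlus and Ni–NTA-purified. The binding signal is per-feature fluorescence intensity (arbitrary units) from an Axon 4000B scanner.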
row,Sequence,binding signal
1,ATATCAAGCCAATCATCCGCTAAAATAATGCCATATTCTTCGGAGTCACCTAGTGCAG,5360 fluorescence intensity (a.u.)
2,TCAACAGATTGATCTCTGAAGCAGTGGCTAATTTCTATTGCGGAGTCACCTAGTGCAG,26400 fluorescence intensity (a.u.)
3,AGTTTAATGGTGATAATATGATTTCAAAATCTGACAACCGCGGAGTCACCTAGTGCAG,12500 fluorescence intensity (a.u.)
4,TCCTTATTATATTACCAATCACATATAACCTGAGTTGTTTCGGAGTCACCTAGTGCAG,20300 fluorescence intensity (a.u.)
5,TTATTTATGGAATAGATTAAATCATTATATGTCTATAATCCGGAGTCACCTAGTGCAG,3770 fluorescence intensity (a.u.)
6,TCTGGATTATTAAATTATATCACTTTCTGTTTCTGACACTCGGAGTCACCTAGTGCAG,6690 fluorescence intensity (a.u.)
7,ATGCTAAGATGTAATTGACATGGTGTTTTAATCGATACATCGGAGTCACCTAGTGCAG,17100 fluorescence intensity (a.u.)
8,TTGTGATTGAGTTCATGCTAAACATGGTCGACATTAGATGCGGAGTCACCTAGTGCAG,41900 fluorescence intensity (a.u.)
9,GTTAAATTTAGGGTTGAAGAAATTAAGATGAAATTCTTTTCGGAGTCACCTAGTGCAG,4990 fluorescence intensity (a.u.)
10,CTTAACAATGCAGTAATTTGTCCCAAATCATCACCCATCTCGGAGTCACCTAGTGCAG,10200 fluorescence intensity (a.u.)
11,TGGTGTTATCAATCAACAGACGAGTTGACGATAATGGTAACGGAGTCACCTAGTGCAG,26100 fluorescence intensity (a.u.)
12,CATGCTATTAATAAACAAACTGATTTAAACTTACATGGTTCGGAGTCACCTAGTGCAG,4960 fluorescence intensity (a.u.)
13,ATAAATTGAACAGAGCAAACAAAGCAGAAGAACTCGACTCCGGAGTCACCTAGTGCAG,6360 fluorescence intensity (a.u.)
14,TTAAATTGCGGATCCTACAAACCGGCCCAGAACAGTTGGGCGGAGTCACCTAGTGCAG,8370 fluorescence intensity (a.u.)
15,GTCTTTATTTGATTGATCATCTGGCATCAATCAATCGGCTCGGAGTCACCTAGTGCAG,65500 fluorescence intensity (a.u.)
16,TAGAGATTTTGTCAGAATTTAATTAAATTATGTGAAATTTCGGAGTCACCTAGTGCAG,12500 fluorescence intensity (a.u.)
17,AATGATTTTATTAAGATTCTGAACAGAGTTGAATAAATGACGGAGTCACCTAGTGCAG,5330 fluorescence intensity (a.u.)
18,ATACATGTCCTGGCATTAATTATCACTCACCTTAGATTATCGGAGTCACCTAGTGCAG,3170 fluorescence intensity (a.u.)
19,CCATCATCAATTCTTCAATCAATCATCCCTCTTCTCTTCTCGGAGTCACCTAGTGCAG,20000 fluorescence intensity (a.u.)
20,AAGTCAAATTAACTTATAATATGAAACAGACACGGTAGTACGGAGTCACCTAGTGCAG,11000 fluorescence intensity (a.u.)
21,CAAATCATGGCACAATTAGGCTCAAAAGATTTGTCTCGCACGGAGTCACCTAGTGCAG,5280 fluorescence intensity (a.u.)
22,TATCAGATTGCAACAACGGATCACATATGCACATCCCCTTCGGAGTCACCTAGTGCAG,3300 fluorescence intensity (a.u.)
23,ACTATAATTTGGGAAAACTAAAACCGCGCCACTCCGTCGTCGGAGTCACCTAGTGCAG,12700 fluorescence intensity (a.u.)
